{
  "source": "the antibiotic and cytotoxicity screens of Wong et al. (2023)",
  "key": {"HSkMC": {"system": "HSkMC", "assay": "cytotoxicity call (relative viability < 0.9)", "details": "10 µM"}, "HepG2": {"system": "HepG2", "assay": "cytotoxicity call (relative viability < 0.9)", "details": "10 µM"}, "S. aureus RN4220": {"system": "S. aureus RN4220", "assay": "growth inhibition call (relative growth <= 0.2)", "details": "50 µM"}},
  "note": "This is one part of the list.",
  "data": [
    {"smiles": "C[C@@H]1CN([C@@H](C)CO)S(=O)(=O)c2ccc(C#C[C@@H](C)O)cc2O[C@H]1CN(C)C", "values": [
      {"measurement": "cytotoxicity call", "setting": "HSkMC", "result": "inactive"},
      {"measurement": "cytotoxicity call", "setting": "HepG2", "result": "inactive"},
      {"measurement": "growth inhibition call", "setting": "S. aureus RN4220", "result": "inactive"}
    ]},
    {"smiles": "CC1CCCC(C)N1", "note": "(stereo not given)", "values": [
      {"measurement": "cytotoxicity call", "setting": "HSkMC", "result": "inactive"},
      {"measurement": "cytotoxicity call", "setting": "HepG2", "result": "inactive"},
      {"measurement": "growth inhibition call", "setting": "S. aureus RN4220", "result": "inactive"}
    ]},
    {"smiles": "O=C(CN1CCOCC1)NCC[C@H]1CC[C@@H](NS(=O)(=O)c2ccc(Cl)cc2)[C@H](CO)O1", "values": [
      {"measurement": "cytotoxicity call", "setting": "HSkMC", "result": "inactive"},
      {"measurement": "cytotoxicity call", "setting": "HepG2", "result": "inactive"},
      {"measurement": "growth inhibition call", "setting": "S. aureus RN4220", "result": "inactive"}
    ]},
    {"smiles": "C=CCn1c(=O)c2cnc(Nc3ccc(N4CCN(C)CC4)cc3)nc2n1-c1cccc(C(C)(C)O)n1", "values": [
      {"measurement": "cytotoxicity call", "setting": "HSkMC", "result": "inactive"},
      {"measurement": "cytotoxicity call", "setting": "HepG2", "result": "active"},
      {"measurement": "growth inhibition call", "setting": "S. aureus RN4220", "result": "inactive"}
    ]},
    {"smiles": "COc1ccc(S(=O)(=O)Nc2ccc3c(c2)C(=O)N([C@H](C)CO)C[C@@H](C)[C@@H](CN(C)C(=O)Nc2ccccc2)OCCCC[C@@H](C)O3)cc1", "values": [
      {"measurement": "cytotoxicity call", "setting": "HSkMC", "result": "inactive"},
      {"measurement": "cytotoxicity call", "setting": "HepG2", "result": "inactive"},
      {"measurement": "growth inhibition call", "setting": "S. aureus RN4220", "result": "inactive"}
    ]},
    {"smiles": "C[C@@H]1CN([C@@H](C)CO)S(=O)(=O)c2ccc(C#CC3(O)CCCC3)cc2O[C@H]1CN(C)C(=O)Cc1cccnc1", "values": [
      {"measurement": "cytotoxicity call", "setting": "HSkMC", "result": "inactive"},
      {"measurement": "cytotoxicity call", "setting": "HepG2", "result": "inactive"},
      {"measurement": "growth inhibition call", "setting": "S. aureus RN4220", "result": "inactive"}
    ]},
    {"smiles": "COc1ccc(S(=O)(=O)Nc2ccc3c(c2)CC(=O)N([C@H](C)CO)C[C@@H](C)[C@@H](CN(C)Cc2ccncc2)O3)cc1", "values": [
      {"measurement": "cytotoxicity call", "setting": "HSkMC", "result": "inactive"},
      {"measurement": "cytotoxicity call", "setting": "HepG2", "result": "inactive"},
      {"measurement": "growth inhibition call", "setting": "S. aureus RN4220", "result": "inactive"}
    ]},
    {"smiles": "Cc1ccc(S(=O)(=O)Nc2ccc3c(c2)C(=O)N([C@@H](C)CO)C[C@@H](C)[C@H](CN(C)Cc2ccccc2)OCCCC[C@H](C)O3)cc1", "values": [
      {"measurement": "cytotoxicity call", "setting": "HSkMC", "result": "inactive"},
      {"measurement": "cytotoxicity call", "setting": "HepG2", "result": "inactive"},
      {"measurement": "growth inhibition call", "setting": "S. aureus RN4220", "result": "inactive"}
    ]},
    {"smiles": "CCC(=O)Nc1ccc2c(c1)OC[C@@H](C)N(C(=O)CN1CCOCC1)C[C@H](C)[C@@H](OC)CN(C)C2=O", "values": [
      {"measurement": "cytotoxicity call", "setting": "HSkMC", "result": "inactive"},
      {"measurement": "cytotoxicity call", "setting": "HepG2", "result": "inactive"},
      {"measurement": "growth inhibition call", "setting": "S. aureus RN4220", "result": "inactive"}
    ]},
    {"smiles": "O=c1cc(-c2ccccc2)oc2cc(O)cc(O)c12", "values": [
      {"measurement": "cytotoxicity call", "setting": "HSkMC", "result": "inactive"},
      {"measurement": "cytotoxicity call", "setting": "HepG2", "result": "inactive"},
      {"measurement": "growth inhibition call", "setting": "S. aureus RN4220", "result": "inactive"}
    ]},
    {"smiles": "C[C@@H]1CN([C@@H](C)CO)C(=O)Cc2cc(NC(=O)CCCCCC(=O)Nc3ccccc3N)ccc2O[C@@H]1CN(C)Cc1ccc(Cl)c(Cl)c1", "values": [
      {"measurement": "cytotoxicity call", "setting": "HSkMC", "result": "inactive"},
      {"measurement": "cytotoxicity call", "setting": "HepG2", "result": "inactive"},
      {"measurement": "growth inhibition call", "setting": "S. aureus RN4220", "result": "inactive"}
    ]},
    {"smiles": "C[C@H]1CCCCO[C@H](CN(C)Cc2ccc3c(c2)OCO3)[C@@H](C)CN([C@@H](C)CO)C(=O)c2cc(NS(=O)(=O)c3ccccc3)ccc2O1", "values": [
      {"measurement": "cytotoxicity call", "setting": "HSkMC", "result": "inactive"},
      {"measurement": "cytotoxicity call", "setting": "HepG2", "result": "inactive"},
      {"measurement": "growth inhibition call", "setting": "S. aureus RN4220", "result": "inactive"}
    ]},
    {"smiles": "CCCNC(=O)[C@@]1(Sc2ccc(C)cc2)CC(=O)N(C2CCCCC2)[C@@H]1c1ccc(CO)cc1I", "values": [
      {"measurement": "cytotoxicity call", "setting": "HSkMC", "result": "inactive"},
      {"measurement": "cytotoxicity call", "setting": "HepG2", "result": "inactive"},
      {"measurement": "growth inhibition call", "setting": "S. aureus RN4220", "result": "inactive"}
    ]},
    {"smiles": "C[C@@H]1CN([C@H](C)CO)S(=O)(=O)c2ccc(C3=CCCC3)cc2O[C@@H]1CN(C)S(=O)(=O)c1cn(C)cn1", "values": [
      {"measurement": "cytotoxicity call", "setting": "HSkMC", "result": "inactive"},
      {"measurement": "cytotoxicity call", "setting": "HepG2", "result": "inactive"},
      {"measurement": "growth inhibition call", "setting": "S. aureus RN4220", "result": "inactive"}
    ]},
    {"smiles": "CCNC(=O)C[C@@H]1C=C[C@H](NC(=O)C2CCOCC2)[C@@H](CO)O1", "values": [
      {"measurement": "cytotoxicity call", "setting": "HSkMC", "result": "inactive"},
      {"measurement": "cytotoxicity call", "setting": "HepG2", "result": "inactive"},
      {"measurement": "growth inhibition call", "setting": "S. aureus RN4220", "result": "inactive"}
    ]},
    {"smiles": "CCCNC(=O)N1C[C@H](O)COC[C@@H]2O[C@@H](CC(=O)N3CCN(C)CC3)CC[C@H]21", "values": [
      {"measurement": "cytotoxicity call", "setting": "HSkMC", "result": "inactive"},
      {"measurement": "cytotoxicity call", "setting": "HepG2", "result": "inactive"},
      {"measurement": "growth inhibition call", "setting": "S. aureus RN4220", "result": "inactive"}
    ]},
    {"smiles": "C[C@@H]1CN([C@@H](C)CO)C(=O)c2ccccc2-c2ccccc2CO[C@@H]1CN(C)Cc1ccc(-c2ccccc2)cc1", "values": [
      {"measurement": "cytotoxicity call", "setting": "HSkMC", "result": "inactive"},
      {"measurement": "cytotoxicity call", "setting": "HepG2", "result": "inactive"},
      {"measurement": "growth inhibition call", "setting": "S. aureus RN4220", "result": "inactive"}
    ]},
    {"smiles": "CC(C)NC(=O)Nc1ccc2c(c1)CC(=O)N([C@@H](C)CO)C[C@@H](C)[C@H](CN(C)C(=O)NC1CCCCC1)O2", "values": [
      {"measurement": "cytotoxicity call", "setting": "HSkMC", "result": "inactive"},
      {"measurement": "cytotoxicity call", "setting": "HepG2", "result": "inactive"},
      {"measurement": "growth inhibition call", "setting": "S. aureus RN4220", "result": "inactive"}
    ]},
    {"smiles": "C[C@H]1CN([C@@H](C)CO)C(=O)c2c(c3ccccc3n2C)-c2ccccc2CO[C@H]1CN(C)Cc1ccc2c(c1)OCO2", "values": [
      {"measurement": "cytotoxicity call", "setting": "HSkMC", "result": "inactive"},
      {"measurement": "cytotoxicity call", "setting": "HepG2", "result": "inactive"},
      {"measurement": "growth inhibition call", "setting": "S. aureus RN4220", "result": "inactive"}
    ]},
    {"smiles": "CCCC#Cc1cnc2c(c1)C(=O)N([C@H](C)CO)C[C@@H](C)[C@H](CN(C)S(=O)(=O)c1cn(C)cn1)O2", "values": [
      {"measurement": "cytotoxicity call", "setting": "HSkMC", "result": "inactive"},
      {"measurement": "cytotoxicity call", "setting": "HepG2", "result": "inactive"},
      {"measurement": "growth inhibition call", "setting": "S. aureus RN4220", "result": "inactive"}
    ]},
    {"smiles": "O=C(C[C@@H]1CC[C@@H]2[C@H](COC[C@H](O)CN2C(=O)c2ccccc2)O1)N1CCOCC1", "values": [
      {"measurement": "cytotoxicity call", "setting": "HSkMC", "result": "inactive"},
      {"measurement": "cytotoxicity call", "setting": "HepG2", "result": "inactive"},
      {"measurement": "growth inhibition call", "setting": "S. aureus RN4220", "result": "inactive"}
    ]},
    {"smiles": "C[C@@H]1CCCCO[C@H](CN(C)Cc2ccc(C(=O)O)cc2)[C@@H](C)CN([C@H](C)CO)C(=O)c2cc(NC(=O)CCC(F)(F)F)ccc2O1", "values": [
      {"measurement": "cytotoxicity call", "setting": "HSkMC", "result": "inactive"},
      {"measurement": "cytotoxicity call", "setting": "HepG2", "result": "inactive"},
      {"measurement": "growth inhibition call", "setting": "S. aureus RN4220", "result": "inactive"}
    ]},
    {"smiles": "Cc1ccc(S(=O)(=O)N(C)C[C@@H]2OCCCC[C@H](C)Oc3ccc(NS(=O)(=O)c4ccc(Cl)cc4)cc3C(=O)N([C@H](C)CO)C[C@@H]2C)cc1", "values": [
      {"measurement": "cytotoxicity call", "setting": "HSkMC", "result": "inactive"},
      {"measurement": "cytotoxicity call", "setting": "HepG2", "result": "inactive"},
      {"measurement": "growth inhibition call", "setting": "S. aureus RN4220", "result": "inactive"}
    ]},
    {"smiles": "Cc1ccc(S(=O)(=O)N(C)C[C@H]2Oc3c(NS(C)(=O)=O)cccc3C(=O)N([C@H](C)CO)C[C@H]2C)cc1", "values": [
      {"measurement": "cytotoxicity call", "setting": "HSkMC", "result": "inactive"},
      {"measurement": "cytotoxicity call", "setting": "HepG2", "result": "inactive"},
      {"measurement": "growth inhibition call", "setting": "S. aureus RN4220", "result": "inactive"}
    ]},
    {"smiles": "COc1ccc(NC(=O)Nc2ccc3c(c2)C(=O)N([C@H](C)CO)C[C@@H](C)[C@@H](CN(C)S(=O)(=O)c2ccc(OC)cc2)OCCCC[C@H](C)O3)cc1", "values": [
      {"measurement": "cytotoxicity call", "setting": "HSkMC (human skeletal muscle cells)", "result": "inactive"},
      {"measurement": "cytotoxicity call", "setting": "HepG2", "result": "inactive"},
      {"measurement": "growth inhibition call", "setting": "S. aureus RN4220", "result": "inactive"}
    ]}
  ]
}
